Experimental data reported in PubChem BioAssay AID686979 (National Center for Advancing Translational Sciences (NCATS), 2013).
About 50,000 (12%) of roughly 420,000 compounds were called active. This list was built around the results that the source calls inconclusive (neither active nor inactive); the mix of calls is not that of the screen. Calls follow the shape of the dose curve; as a rule, active = well fitted inhibition curve with a large enough effect; inconclusive = small, poorly fitted or top-dose-only effect; inactive = flat fitted curve, though single readings scatter. Potencies of inconclusive entries are left out as doubtful fits.

Assay: qHTS for Inhibitors of human tyrosyl-DNA phosphodiesterase 1 (TDP1): qHTS in cells in presence of CPT; also: nearly all actives have a fitted effect of over 55% in size
Details: chicken DT40 Tdp1-/-;hTDP1 cells + 20 nM CPT, ATP luminescence, 48 h; series mostly up to 46.2 µM
How it was run: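 Cell growth measured by CellTiter-Glo luminescence after a minimum 48 h, 37 C compound exposure with 20 nM CPT in Tdp1-knockout DT40 cells stably expressing hTDP1, seeded 400/well; qHTS titration format.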
Potency is read from the fitted curve at half-maximal effect; tags tell the direction and shape of the fitted curve.

Row | Compound | Potency
1 | C/C(N)=C(/C#N)C(=O)CSc1nnnn1-c1ccc(C)cc1 | inconclusive [inhibitor, full curve, poor fit]
2 | COc1ccccc1-c1cc(C(F)(F)F)nc(S(=O)(=O)CCCC(=O)Nc2cc(OC)c(OC)c(OC)c2)n1 | inconclusive [inhibitor, single point]
3 | O=C(Cn1cnc2ccccc21)Nc1ccc2c(c1)OCCCO2 | active: 8.2 µM
4 | Cc1cc(C)c2c(=O)cc(CSc3nnc(COc4ccccc4C)n3C)[nH]c2c1 | inconclusive [inhibitor, single point]
5 | CC(C)CCOc1ccc(C(=O)C[N+]2(C)CCOCC2)cc1 | active: 20.6 µM
6 | O=C(c1ccc(S(=O)(=O)N2CCOCC2)cc1)N1CCN(c2ccccc2)CC1 | inactive
7 | COc1ccc(CNC(=O)C2CCCN(c3ncnc4c3nc3n4CCCCC3)C2)cc1 (stereo not drawn) | active: 18.4 µM
8 | CCCN(CCC)CCNC(=O)c1cn(C)c(=O)c2c1c1ccccc1n2C | inconclusive [inhibitor, single point]
9 | c1ccc(-c2csc(Nc3ccccn3)n2)cc1 | inactive
10 | CCOC(=O)C(Sc1nnc2c3ccccc3n(CC)c2n1)C(=O)OCC | inactive
11 | COc1ccc(Cn2c(-c3ccc(C)cc3)nc3c(c(=O)c4ccccc4n3C)c2=O)cc1 | active: 14.6 µM
12 | CCC(C)c1ccc2oc(-c3ccc(NC(=O)c4ncn[nH]4)cc3)nc2c1 (stereo not drawn) | inconclusive [inhibitor, partial curve, poor fit]
13 | COc1ccccc1NS(=O)(=O)c1cc(NC(=O)c2cccs2)ccc1N1CCCCC1 | active: 16.4 µM
14 | N#CCC(=O)N/N=C/c1c(-c2ccccc2)n(-c2ccccc2)c2ccccc12 | inconclusive [inhibitor, single point]
15 | Cc1ccc(N(CC(=O)NC2CCCC2)C(=O)CCC(=O)Nc2ccccn2)cc1 | inconclusive [inhibitor, partial curve, poor fit]
16 | Cc1cc(C)c(C)c(S(=O)(=O)Nc2cccc(-n3cnnn3)c2)c1C | inconclusive [inhibitor, single point]
17 | O=S(=O)(c1ccccc1)N1CCC2(CC1)CO2 | inconclusive [inhibitor, partial curve, poor fit]
18 | Cn1c(=O)c2cc(NC(=O)NCc3ccc(Cl)cc3Cl)ccc2n1Cc1ccc(F)cc1 | inconclusive [inhibitor, single point]
19 | Cc1ccc2c(c1)c1c(c(=O)n(-c3ccccc3C)c(=O)n1CC(=O)NCc1ccccc1)n2C | inconclusive [inhibitor, single point]
20 | CCOC(=O)C(C#N)C(=N)C1C(=O)OC2CCCCC21 (stereo not drawn) | inactive
21 | CCN(c1ccccc1)S(=O)(=O)c1ccc2c(c1)CC(C)N2C(=O)C1CC1 (stereo not drawn) | inconclusive [inhibitor, single point]
22 | O=C(COC(=O)c1cc(S(=O)(=O)N2CCCCC2)ccc1Cl)NCc1ccco1 | inactive
23 | CCOC(=O)c1ccc(N2C(=O)c3n[nH]c(-c4cccs4)c3C2c2ccc(C(C)C)cc2)cc1 (stereo not drawn) | inconclusive [inhibitor, single point]

Row | Compound | Potency
24 | CN1CCCN=C1COC(=O)C(O)(c1ccccc1)C1CCCCC1 (stereo not drawn) | inconclusive [inhibitor, partial curve]
25 | O=c1cc(-c2ccccc2)c2cc(Cl)c3c(c2o1)CN(Cc1ccccc1)CO3 | inconclusive [inhibitor, single point]
26 | O=C(N/N=C/c1cccnc1)c1cc(-c2ccccc2OCc2ccccc2)n[nH]1 | inconclusive [inhibitor, single point]
27 | COc1cc(SC)ccc1C(=O)Nc1ccc(C)cc1 | inactive
28 | COc1cccc(CNCC(O)(c2ccc(Cl)cc2)c2ccc(Cl)cc2)c1 | active: 23.1 µM
29 | Cc1c(-c2ccccc2)nc(-c2ccccc2)[nH]c1=O | inactive
30 | CCOC(=O)c1c(Oc2ccc(OC)cc2)nnc(-c2ccccc2)c1-c1ccccc1 | active: 16.4 µM
31 | COc1ccc(NS(=O)(=O)c2ccc3oc(=O)ccc3c2)cc1 | inconclusive [inhibitor, partial curve]
32 | COC(=O)c1ccc(NCC(=O)c2ccccc2)cc1 | inactive
33 | Cc1ccc(OCCCn2c(CCNC(=O)C3CCCCC3)nc3ccccc32)c(C)c1 | inconclusive [inhibitor, single point]
34 | Cc1ccc(S(=O)(=O)N2CCOCC2)cc1NC(=O)CN1CCN(c2ccc(O)cc2)CC1 | inconclusive [inhibitor, single point]
35 | Cc1cccc(C)c1OCC1CNC(=O)O1 (stereo not drawn) | inconclusive [inhibitor, single point]
36 | COc1cc(/C=N/n2cnc3c(sc4nc(C)cc(C)c43)c2=O)ccc1O | inactive
37 | Cc1ccc(OCCN2C(=O)C(=O)c3cccc(C)c32)cc1 | active: 2.31 µM
38 | CCCCc1ccc(NC(=O)CN2C(=O)C3CCCCC3C2=O)cc1 (stereo not drawn) | inconclusive [inhibitor, single point]
39 | COc1ccccc1NC(=O)Cn1c(=O)n(Cc2ccco2)c(=O)c2cccnc21 | inconclusive [inhibitor, partial curve, poor fit]
40 | Cc1cc(-c2ccc(C)c(S(=O)(=O)N(C)c3ccc(C)c(C)c3)c2)on1 | inconclusive [inhibitor, single point]
41 | CCN(CC)S(=O)(=O)c1cc(OC)ccc1N=Nc1ccc(O)c2ncccc12 | active: 7.31 µM
42 | CC1(C(=O)NS(=O)(=O)C2CC2)CCCN(C(=O)c2cccnc2Oc2ccccc2)C1 (stereo not drawn) | inconclusive [inhibitor, partial curve]
43 | CC(C)Cc1ccc(CN2CCCC(NC(=O)c3nn(C)c(=O)c4ccccc34)C2)cc1 (stereo not drawn) | inconclusive [inhibitor, single point]
44 | Cc1ccc(CSc2nnnn2C)cc1 | inactive
45 | COc1ccc(C(=O)/C=C/c2ccc(OC)c(COc3ccccc3F)c2)cc1 | active: 25.9 µM
46 | CN(Cc1cn(Cc2ccc(Cl)cc2)nn1)C1CN(Cc2cn(Cc3ccc(Cl)cc3)nn2)S(=O)(=O)C1 (stereo not drawn) | active: 18.4 µM

Row | Compound | Potency
47 | COc1ccc(C(=O)c2sc(Nc3cccc(OC)c3)c(C(=O)Nc3cccc(C)c3C)c2N)cc1 | active: 18.4 µM
48 | Cc1oc(-c2ccccc2)nc1Cn1cccc1C1=NC(c2ccccc2)CO1 (stereo not drawn) | inconclusive [inhibitor, single point]
49 | CC(=O)Nc1ccc(Nc2ncnc(N)c2[N+](=O)[O-])cc1 | inconclusive [inhibitor, single point]
50 | CCN1CCc2c(sc(N)c2C(N)=O)C1 | inconclusive [inhibitor, single point]
51 | CCn1cc(C(=O)O)c(=O)c2cc(F)c(N3CCN(C(=S)NC(=O)c4ccccc4Br)CC3)cc21 | inconclusive [inhibitor, partial curve]
52 | COc1ccc(NS(=O)(=O)c2cc(NC(=O)c3cc(F)c(F)cc3Cl)ccc2N2CCOCC2)cc1 | inconclusive [inhibitor, partial curve]
53 | CCOc1ccc(C(=O)CCN2CCCCC2)cc1 | active: 20.6 µM
54 | COc1ccccc1-c1c(C)oc2cc(OC(=O)c3ccco3)ccc2c1=O | inconclusive [inhibitor, single point]
55 | COc1ccc(-n2nc(C(=O)NCC(=O)N3CCN(Cc4ccccc4)CC3)c3ccccc3c2=O)c(OC)c1 | inactive
56 | COc1ccc(S(=O)(=O)N2CCC[C@H]2C(=O)N2CCC[C@H]2C(=O)N[C@@H](C)c2ccccc2)cc1C | inconclusive [inhibitor, single point]
57 | COc1ccc2[nH]c(=O)c(CN(Cc3nnnn3CCc3ccccc3)CC3CCCO3)cc2c1 (stereo not drawn) | inconclusive [inhibitor, single point]
58 | Cc1cccc(C)c1N=C1SC(CC(=O)Nc2c(C)cccc2C)C(=O)N1CCc1ccccn1 (stereo not drawn) | inconclusive [inhibitor, single point]
59 | CCC(C)c1ccc(OCCn2cc(/C=N/NC(=O)CSc3nnc(C)s3)c3ccccc32)cc1 (stereo not drawn) | inconclusive [inhibitor, single point]
60 | C[Se]CCC(N)C(=O)O (stereo not drawn) | inactive
61 | Cc1[nH]c2ccccc2c1C(=O)COC(=O)C1CC(O)CN1S(=O)(=O)c1ccc(Cl)cc1 (stereo not drawn) | inconclusive [inhibitor, single point]
62 | Cc1c(N2C(=O)CS/C2=N\N=C\c2ccc(Br)cc2)c(=O)n(-c2ccccc2)n1C | inactive
63 | Nc1nnnn1/N=C/c1ccccc1 | inactive
64 | CCN(c1ccccc1)S(=O)(=O)c1ccc(C(=O)N2CC(C)CC(C)C2)cc1 (stereo not drawn) | inconclusive [inhibitor, single point]
65 | Fc1ccccc1NC(=S)NCCc1ccc(Cl)cc1 | inconclusive [inhibitor, partial curve, poor fit]
66 | CCOC(=O)c1cc(-c2ccccc2)n(CC(=O)Nc2ccc(OCC)cc2)c1C | inconclusive [inhibitor, single point]
67 | COc1ccc(-c2nn(-c3ccccc3)cc2/C=C/C(=O)N(C)CC(=O)Nc2cccc(F)c2)cc1OC | inconclusive [inhibitor, single point]
68 | CCOc1cc(C=NNC(=O)CCCC(=O)NN=Cc2ccc(O)c(OCC)c2)ccc1O | inactive
